In all, about 340,000 compounds went through this assay and about 6,900 (2%) were called active. Rule as the data show it: active = inhibition above about 30%; inactive = below that, where a call was filed. The list shows a part of the results, in another mix than the full data. Entries without a call were filed so in the source.

One may read the inhibition as the change of the read-out against control, counted positive when it falls.

UniProt P14416, sequence (P14416 whole entry, looked up): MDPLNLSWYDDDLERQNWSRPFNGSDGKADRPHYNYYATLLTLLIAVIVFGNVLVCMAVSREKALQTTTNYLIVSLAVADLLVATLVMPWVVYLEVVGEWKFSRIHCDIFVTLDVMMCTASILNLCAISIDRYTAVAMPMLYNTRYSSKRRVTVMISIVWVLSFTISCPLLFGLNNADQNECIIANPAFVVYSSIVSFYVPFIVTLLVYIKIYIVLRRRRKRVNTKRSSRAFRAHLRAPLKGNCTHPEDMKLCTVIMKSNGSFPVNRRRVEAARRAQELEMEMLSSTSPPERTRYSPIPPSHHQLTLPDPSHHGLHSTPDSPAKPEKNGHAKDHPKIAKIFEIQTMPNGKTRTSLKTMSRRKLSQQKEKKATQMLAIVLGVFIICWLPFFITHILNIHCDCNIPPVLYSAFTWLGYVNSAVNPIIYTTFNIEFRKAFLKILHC

This test concerns the target D(2) dopamine receptor (Homo sapiens) (UniProt P14416). In words: HTS Assay for Allosteric Antagonists of the Human D2 Dopamine Receptor: Primary Screen for Antagonists. Also: 0% is about no effect. To be noted: HEK293 TREx D2 cells, calcium flux, dopamine EC80; at 10 µM; stronger effect = higher value. In outline:
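Inhibition of EC80 dopamine-driven calcium flux, recorded kinetically, defines activity here; cells are a tetracycline-induced HEK293 T-REx line expressing force-coupled D2.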
For orientation: Calcium assays in cells follow changes in intracellular calcium, usually with a dye or a luminescent sensor.
As to `Cc1ccccc1-c1noc(-c2ccc(N3CCCCC3)c([N+](=O)[O-])c2)n1`, the inhibition turned out to be 18.7%.
In the case of `CCc1ccc(OC(C)C(=O)N2CCC(c3nc4ccccc4o3)CC2)cc1` (stereo unspecified) it was 0.336%.
In the case of `Cc1ccc(C(=O)Nc2ccc3c(c2)n(C)c(=O)c(=O)n3C)cc1` it was -8.95%.
Regarding `COc1ccc(CNS(=O)(=O)c2ccc(N3CCCCS3(=O)=O)cc2)cc1`, the inhibition came to 10.8%.
In the case of `CC1CCN(Cc2c(O)ccc3c(=O)c(Oc4ccccc4Cl)c(C(F)(F)F)oc23)CC1` it was 11.2%; in that of `Cc1ccc(NC(=O)Cn2nc(C(=O)Nc3ccc(C)cc3)ccc2=O)cc1`, 9.2%; in that of `O=C(COc1ccccc1F)Nc1ccc2nc(SCCOc3ccccc3)sc2c1`, 9.81%.
Consider `COc1ccc(NC(=O)CC2C(=O)N(c3cccc(OC)c3)C(=O)N2CCc2cccs2)cc1` (stereo unspecified), for which the inhibition stood at 20.7%.
For the molecule `Cc1ccc(NC(=O)Cn2c(=O)n(Cc3nc(-c4ccccc4)no3)c(=O)c3cc4c(cc32)OCO4)cc1F`, the inhibition is -0.73%.
As for `CC(C)c1ccc(Cn2c(COc3ccccc3)nc3ccccc32)cc1`, the inhibition was 3.18%.
For `COc1ccc(S(=O)(=O)NCC(c2ccco2)S(=O)(=O)c2ccc(C)cc2)cc1F` (stereo unspecified), the inhibition was determined as 13.3%.
As for `Cc1sc(NC(=O)CCC(=O)O)c(C(N)=O)c1-c1ccccc1`, the inhibition is active: 47.5%.
For `CCn1nc(C)c2c(-c3ccccc3)cc(=O)n(C(C)C(=O)NCCC(C)C)c21` (stereo unspecified), the inhibition is -9.76%.
Take `Cc1ccccc1C(=O)Nc1nnc(S(=O)(=O)N(C)Cc2ccccc2)s1`: the inhibition turned out to be 14.3%.
Next, `COc1ccc(-n2c(-c3ccc(C)cc3)cc3c2CC(C)(C)CC3=O)cc1Cl`: -7.16%; `CCOC(=O)C1(Cc2ccccc2)CCN(Cc2nccn2CC)CC1`: active: 65.2%.
On to `CCOC(=O)c1ccc(NC(=O)CC2C(=O)N(c3ccc(F)cc3)C(=O)N2Cc2cccnc2)cc1` (stereo unspecified), for which the inhibition turned out to be 2.07%.
Turning to `CC1CCN(C(=O)Cn2c(=O)n(CC3CCC(C(=O)NC(C)C)CC3)c(=O)c3sccc32)CC1` (stereo unspecified), the inhibition was 6.05%.
For `O=C(NCCCN1CCCCC1)c1sc2ncccc2c1-n1cccc1`, the inhibition is 9.96%.
In the case of `COc1ccc(-c2nc(SCC(=O)NC3CCCC3)c(-c3ccc(F)cc3)[nH]2)cc1` it was -8.05%; in that of `O=C(Nc1cc(-c2nc3ccccc3o2)ccc1Cl)c1sc2c([N+](=O)[O-])cccc2c1Cl`, -12.9%.
For the molecule `CCOc1ccc(CN2CCc3nc(N4CCN(c5ccccc5OC)CC4)ncc3C2)cc1OC`, the inhibition was -7.44%.
For `CC(C)(C)OC(=O)N1CCC(c2c(C(=O)NCc3cccc(Cl)c3)cnn2-c2ccc(F)cc2)CC1`, the inhibition is -7.57%.
Consider `COc1cc(/C=C(\C#N)C(=O)NCC2CCCO2)ccc1O` (stereo unspecified), for which the inhibition came out at 5.64%.
Next, `CCc1ccccc1NC(=O)CSc1nc(-c2cccc(Cl)c2)nc2c1Cc1c(CO)cnc(C)c1O2`: -3.41%; `Cc1cc(C)n(C(C)CC(=O)Nc2cccc(C(F)(F)F)c2)n1` (stereo unspecified): -0.495%.

The values above are taken from PubChem BioAssay AID485344 (National Center for Advancing Translational Sciences (NCATS), 2010).
